# Results reported in the supplement of paper PMC11383711.
# Some of the results follow. Binding of human antibodies (heavy:light variable regions, tested as scFv in one mRNA-display pool) to influenza hemagglutinin, with or without the stem antibody CR9114 bound first. Score = (mean enrichment − median) / interquartile range of that screen; higher = more enriched, 0 = typical non-binder. Active = above the paper's cut-off per screen: stems 28; unblocked H1 Solomon Islands 5, H1 Michigan 3, H3 5, H5 19, H7 2.85, both B 5; blocked 9, 7, H5 10, H7 10, B Phuket 10, B Lee 11.5. Scores are scaled within each screen and are no affinities; replicates correlate at about 0.6 to 0.9, and antibodies rare in the pool are noisier.
# B1: antibody 3D03 (protein)
# chain 1: EVQLVQSEAEVKKPGESLKISCKGSGYSFANYWIAWVRQMPGQDLEWMGVIYPGDSDTKYSPSFQGQVTISADKSISTAYLQWNSLKASDTAMYYCARAPPHEGRYYYYYYYMDVWGKGTTVTVSS
# chain 2: AIRMTQSPSSLSASVGDRVTITCRASQDINSFLAWYQQKPGQAPKVLLYGASRLQSGVPSRFSGSGSGADYTLTISSLQPEDFATYYCQQYYHIPRFGQGTKVEIK
# B2: W85-2B03 (protein)
# chain 1: QVQLVESGGGVVHPGRSLRLSCAASGFDFSDYAMHWVRQAPGKGLEWVALISSDGGNKYSADSMEGRFTISRDNYKNTVYLQMNRLRAEDTAVYYCATDFCSSSSCYLEYWGQGTLVTVSS
# chain 2: QSALTQPASVSGSPGQSITISCTGTSTDVGGYNYVSWYQQHPGKAPKLMIYEVNNRPSGISDRFSASKSGNTASLTISGLQAEDEADYYCSSYTRRSTWVFGGGTKVAVL
# B3: C1-C02 (protein)
# chain 1: VQLVESGGGLVKPGGSLRISCAASGFSFSNAWMNWVRQAPGRGLEWVGRIKSKTDGGITDYGAPVKGRFSISRDDSKKTLYLQMNSLKTEDTAVYYCATGGGSASGMYYYNGLDVWGQGTTVTVSS
# chain 2: DIVMTQTPLSLSVTPGQPASISCKSSQTLLHGDEKTYLYWYLQKPGQSPQILIYEVSNRFPDVPDRFSGSGSGTDFTLKISRVEAEDVGVYYCMQSIQLPYTFGQGTKVEIK
# B4: 051-09-4C02 (protein)
# chain 1: QVQLVESGGGLVTPGGSLRLSCVASGFSFGDFYMGWIRQAPGKGLQWLSHISPSGGTIYYSDSVKGRFSISRDNAKNSVHLEMNSLRADDTAVYYCARAGVAVLTFDNRGWRFFDPWGQGTLVTVSS
# chain 2: EIVLTQSPATLSLSPGERATLSCRASQSINDYLAWYQQKPGQAPRLVIHDASNRATGIPARFSGSGSETDFTLTISSLEPEDFAVYYCQQRSNWPPGVTFGQGTRLEIK
# B5: AG2-B02 (protein)
# chain 1: VQLVQSGAEVKKPGESLKISCRASGYNFDRHWIGWVRQTPGKGLEWMAIIYPHDSGHRYSPAFEGQVAISADKSTSTAYLQWSSLKASDTATYYCAKLPSKYYYDNSGPFDVWGQGTLVTVSS
# chain 2: AIQLTQSPSSLSASVGDRVTITCRASESVITALAWYQQRPGRAPRLLISDASTLQNGVPSRFSGSGSGTDFALTITSLQPEDFATYYCQQYETGPTFGQGTRLEIK
# B6: H1N1-300-16-IgG-2E02- (protein)
# chain 1: QVQLVQSGAEVKKPGSSVKISCEASGNTFTKYAISWVRQAPGQGLEWMGGMNPNFGTTNYAQKFQGRLTITADERTTTAYMDLSSLRPDDTAVYYCARAKLLGEVSLGPPEFWGQGTLVTVSS
# chain 2: DIQMTQSPSSLSASIGDRVTITCQASQDIKKYLNWYQQKPGKAPKLLIYDASSLQTGVPSRFSGSGSGTEFTFTISSLQPEDIATYYCQQYHNLIPMDTFGQGTKVEIK
# Molecular target: Influenza A H1N1 A/Michigan/45/2015 hemagglutinin ectodomain
# Assay: mRNA display binding score; higher = more enriched on the antigen
# Settings: antigen blocked with: 2 µM CR9114 IgG
# Description: (§1)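 A pool of natively paired antibodies, displayed as scFv on mRNA, was selected once on antigen-coated beads and sequenced before and after; two replicates.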
row,Binder,mRNA display binding score
1,B1,inactive: 0.0677
2,B2,inactive: 0.275
3,B3,inactive: 0.76
4,B4,inactive: 0.028
5,B5,inactive: 4.18
6,B6,inactive: 0.746

# Same assay, conditions: antigen blocked with: nothing
row,Binder,mRNA display binding score
1,B1,inactive: -0.352
2,B2,inactive: -0.36
3,B3,inactive: -0.915
4,B4,inactive: -0.729
5,B5,inactive: -0.172
6,B6,inactive: -0.514

# Molecular target: Influenza A H1N1 A/Solomon Islands/3/2006 hemagglutinin ectodomain
# Assay: as above
# Settings: antigen blocked with: 2 µM CR9114 IgG
# Description: as §1
row,Binder,mRNA display binding score
1,B1,inactive: 0.251
2,B2,inactive: -0.893
3,B3,inactive: -0.808
4,B4,inactive: -0.872
5,B5,active: 270
6,B6,inactive: 0.478

# Same assay, conditions: antigen blocked with: nothing
row,Binder,mRNA display binding score
1,B1,inactive: 0.287
2,B2,inactive: -0.151
3,B3,inactive: -0.397
4,B4,inactive: -0.473
5,B5,active: 233
6,B6,inactive: 0.0102

# Molecular target: Influenza A H3N2 A/Singapore/INFIMH-16-0019/2016 hemagglutinin ectodomain
# Assay: as above
# Settings: antigen blocked with: nothing
# Description: as §1
row,Binder,mRNA display binding score
1,B1,inactive: -0.235
2,B2,inactive: -0.518
3,B3,inactive: -0.51
4,B4,inactive: 0.466
5,B5,inactive: -0.0931
6,B6,inactive: -0.329

# Molecular target: Influenza A H5N1 A/Qinghai/1A/2005 hemagglutinin ectodomain
# Assay: as above
# Settings: antigen blocked with: 2 µM CR9114 IgG
# Description: as §1
row,Binder,mRNA display binding score
1,B1,inactive: -0.739
2,B2,inactive: -0.07
3,B3,inactive: 0.777
4,B4,inactive: -0.504
5,B5,inactive: 3.27
6,B6,inactive: -0.381

# Same assay, conditions: antigen blocked with: nothing
row,Binder,mRNA display binding score
1,B1,inactive: -0.242
2,B2,inactive: -0.633
3,B3,inactive: -0.385
4,B4,inactive: -0.488
5,B5,inactive: 2.18
6,B6,inactive: -0.367

# Molecular target: Influenza A H7N9 A/Shanghai/2/2013 hemagglutinin ectodomain
# Assay: as above
# Settings: antigen blocked with: 2 µM CR9114 IgG
# Description: as §1
row,Binder,mRNA display binding score
1,B1,inactive: 0.15
2,B2,inactive: -0.54
3,B3,inactive: 0.502
4,B4,inactive: 0.474
5,B5,inactive: 2.72
6,B6,inactive: -0.0717

# Same assay, conditions: antigen blocked with: nothing
row,Binder,mRNA display binding score
1,B1,inactive: -0.484
2,B2,inactive: -0.504
3,B3,inactive: -0.31
4,B4,inactive: -0.677
5,B5,inactive: 0.096
6,B6,inactive: -0.726

# Molecular target: Influenza B/Lee/1940 hemagglutinin ectodomain
# Assay: as above
# Settings: antigen blocked with: 2 µM CR9114 IgG
# Description: as §1
row,Binder,mRNA display binding score
1,B1,inactive: 0.449
2,B2,inactive: 0.475
3,B3,inactive: -0.323
4,B4,inactive: 0.0826
5,B5,inactive: 0.0646
6,B6,inactive: 1.11

# Same assay, conditions: antigen blocked with: nothing
row,Binder,mRNA display binding score
1,B1,inactive: 0.469
2,B2,inactive: -0.274
3,B3,inactive: -0.25
4,B4,inactive: -0.367
5,B5,inactive: 0.544
6,B6,inactive: 0.226

# Molecular target: Influenza B/Phuket/3073/2013 hemagglutinin ectodomain
# Assay: as above
# Settings: antigen blocked with: 2 µM CR9114 IgG
# Description: as §1
row,Binder,mRNA display binding score
1,B1,inactive: -0.107
2,B2,inactive: -0.532
3,B3,inactive: -0.351
4,B4,inactive: -0.543
5,B5,active: 10.5
6,B6,inactive: 0.268

# Same assay, conditions: antigen blocked with: nothing
row,Binder,mRNA display binding score
1,B1,inactive: 0.3
2,B2,inactive: -0.14
3,B3,inactive: -0.312
4,B4,inactive: -0.366
5,B5,active: 8.63
6,B6,inactive: 0.0943
